pIC50: −log10 of the molar value.

In one test the target is T1, 17-beta-hydroxysteroid dehydrogenase type 1 (Homo sapiens, UniProt P14061).
T1 sequence (P14061 whole entry): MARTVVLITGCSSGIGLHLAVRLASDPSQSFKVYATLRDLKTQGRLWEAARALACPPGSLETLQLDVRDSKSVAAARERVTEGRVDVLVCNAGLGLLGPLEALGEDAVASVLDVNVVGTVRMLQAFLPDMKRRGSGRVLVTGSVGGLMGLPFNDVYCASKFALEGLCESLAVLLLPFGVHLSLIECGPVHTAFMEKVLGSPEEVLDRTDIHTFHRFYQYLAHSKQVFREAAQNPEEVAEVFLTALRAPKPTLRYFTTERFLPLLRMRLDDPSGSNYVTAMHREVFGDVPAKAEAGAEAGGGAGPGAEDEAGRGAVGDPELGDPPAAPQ
`Nc1ccc(-c2ccc(C(=O)c3cccc(O)c3)s2)cc1`: the pIC50 (usually the negative decadic logarithm of the IC50, by convention in mol/L) was 6.84.

The molecule `O=C(c1cccc(O)c1)c1ccc(-c2ccc(NS(=O)(=O)c3ccccc3)cc2)s1` showed a pIC50 of 6.71.

Turning to `N#Cc1cccc(S(=O)(=O)Nc2ccc(-c3ccc(C(=O)c4cccc(O)c4)s3)cc2)c1`, the pIC50 is 6.82.

The molecule `O=C(c1cccc(O)c1)c1ccc(-c2cccc(NS(=O)(=O)c3ccccc3)c2)s1` gave a pIC50 of 7.68.

Turning to `O=C(c1cccc(O)c1)c1ccc(-c2cccc(NS(=O)(=O)c3cccs3)c2)s1`, the pIC50 is 7.41.

On to `O=C(c1cccc(O)c1)c1ccc(-c2cccc(NS(=O)(=O)c3cccc(O)c3)c2)s1`, for which the pIC50 is 7.80.

As for `CN(C(=O)c1cccc(O)c1)c1cccc(-c2ccc(C(=O)c3cccc(O)c3)s2)c1`, the pIC50 is 7.15.

For `O=C(c1cccc(O)c1)c1ccc(-c2cccc(NS(=O)(=O)c3ccccc3[N+](=O)[O-])c2)s1`, the pIC50 was 7.49.

`O=C(c1cccc(O)c1)c1ccc(-c2cccc(NS(=O)(=O)c3cccc([N+](=O)[O-])c3)c2)s1` had a pIC50 of 7.33.

In the case of `O=C(c1cccc(O)c1)c1ccc(-c2cccc(NS(=O)(=O)c3ccc([N+](=O)[O-])cc3)c2)s1`, the pIC50 was 7.38.

For the molecule `O=C(c1cccc(O)c1)c1ccc(-c2cccc(NS(=O)(=O)c3cccc([N+](=O)[O-])c3[N+](=O)[O-])c2)s1`, the pIC50 was 6.74.

Molecule `O=C(c1cccc(O)c1)c1ccc(-c2cccc(NS(=O)(=O)c3ccccc3F)c2)s1` gave a pIC50 of 7.30.

Turning to `O=C(c1cccc(O)c1)c1ccc(-c2cccc(NS(=O)(=O)c3cccc(F)c3)c2)s1`, the pIC50 was 7.42.

In turn, `O=C(c1cccc(O)c1)c1ccc(-c2cccc(NS(=O)(=O)c3ccc(F)cc3)c2)s1` showed a pIC50 of 7.52.

Molecule `O=C(c1cccc(O)c1)c1ccc(-c2cccc(NS(=O)(=O)c3ccc(Br)cc3)c2)s1` gave a pIC50 of 7.30.

Molecule `O=C(c1cccc(O)c1)c1ccc(-c2cccc(NS(=O)(=O)c3cc(F)c(Br)cc3F)c2)s1` showed a pIC50 of 6.96.

As for `CC(=O)Nc1cccc(S(=O)(=O)Nc2cccc(-c3ccc(C(=O)c4cccc(O)c4)s3)c2)c1`, the pIC50 is 6.51.

In turn, `Cc1cccc(S(=O)(=O)Nc2cccc(-c3ccc(C(=O)c4cccc(O)c4)s3)c2)c1` had a pIC50 of 7.74.

In turn, `COc1ccc(S(=O)(=O)Nc2cccc(-c3ccc(C(=O)c4cccc(O)c4)s3)c2)c(F)c1` had a pIC50 of 7.29.

Regarding `O=C(c1cccc(O)c1)c1ccc(-c2cccc(NS(=O)(=O)c3ccc(O)cc3F)c2)s1`, the pIC50 is 6.95.

The molecule `O=C(c1ccc(-c2cccc(NS(=O)(=O)c3ccccc3C(F)(F)F)c2)s1)c1c(F)ccc(O)c1F` gave a pIC50 of 8.70.

For the molecule `Cn1cnc(S(=O)(=O)Nc2cccc(-c3ccc(C(=O)c4c(F)ccc(O)c4F)s3)c2)c1`, the pIC50 is 8.22.

For `Cc1cc(NS(=O)(=O)C2CC2)cc(-c2ccc(C(=O)c3c(F)ccc(O)c3F)s2)c1`, the pIC50 was 8.30.

A further test addresses T2, Estradiol 17-beta-dehydrogenase 2 (Mus musculus, UniProt P51658).
T2 sequence (P51658 whole entry): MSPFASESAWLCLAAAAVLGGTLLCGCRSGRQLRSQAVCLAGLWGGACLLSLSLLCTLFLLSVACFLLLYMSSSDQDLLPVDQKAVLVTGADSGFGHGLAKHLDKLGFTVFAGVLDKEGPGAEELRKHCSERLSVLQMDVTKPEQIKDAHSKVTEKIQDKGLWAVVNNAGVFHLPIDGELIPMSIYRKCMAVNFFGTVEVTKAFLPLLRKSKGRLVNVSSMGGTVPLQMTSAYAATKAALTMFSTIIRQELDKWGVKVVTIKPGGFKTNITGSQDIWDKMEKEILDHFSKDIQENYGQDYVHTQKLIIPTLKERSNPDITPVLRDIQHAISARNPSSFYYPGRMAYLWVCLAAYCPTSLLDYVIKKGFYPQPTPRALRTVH
The molecule `Cc1cc(-c2ccc(C(=O)c3c(F)ccc(O)c3F)s2)cc(N(C)S(=O)(=O)C2CC2)c1` had a pIC50 of 6.89.

Another test addresses T3, Estradiol 17-beta-dehydrogenase 1 (Rattus norvegicus, UniProt P51657).
T3 sequence (P51657 whole entry): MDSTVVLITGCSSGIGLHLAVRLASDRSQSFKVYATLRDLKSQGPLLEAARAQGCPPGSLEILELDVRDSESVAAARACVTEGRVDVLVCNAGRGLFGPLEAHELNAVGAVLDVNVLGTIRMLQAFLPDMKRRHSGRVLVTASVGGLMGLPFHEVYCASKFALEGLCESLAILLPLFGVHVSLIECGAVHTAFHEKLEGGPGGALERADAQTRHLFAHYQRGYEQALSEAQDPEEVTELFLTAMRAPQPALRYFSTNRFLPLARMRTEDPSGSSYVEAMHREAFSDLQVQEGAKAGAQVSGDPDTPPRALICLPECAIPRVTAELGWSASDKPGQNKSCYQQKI
In turn, `O=C(c1ccc(-c2cccc(NS(=O)(=O)c3ccccc3OC(F)(F)F)c2)s1)c1c(F)ccc(O)c1F` had a negative-log IC50 (pIC50) of 7.10.

As for `O=C(c1ccc(-c2cccc(NS(=O)(=O)c3ccccc3C(F)(F)F)c2)s1)c1c(F)ccc(O)c1F`, the pIC50 was 7.01.

Another test concerns the target T4, Estradiol 17-beta-dehydrogenase 2 (Rattus norvegicus, UniProt Q62730).
T4 sequence (Q62730 whole entry): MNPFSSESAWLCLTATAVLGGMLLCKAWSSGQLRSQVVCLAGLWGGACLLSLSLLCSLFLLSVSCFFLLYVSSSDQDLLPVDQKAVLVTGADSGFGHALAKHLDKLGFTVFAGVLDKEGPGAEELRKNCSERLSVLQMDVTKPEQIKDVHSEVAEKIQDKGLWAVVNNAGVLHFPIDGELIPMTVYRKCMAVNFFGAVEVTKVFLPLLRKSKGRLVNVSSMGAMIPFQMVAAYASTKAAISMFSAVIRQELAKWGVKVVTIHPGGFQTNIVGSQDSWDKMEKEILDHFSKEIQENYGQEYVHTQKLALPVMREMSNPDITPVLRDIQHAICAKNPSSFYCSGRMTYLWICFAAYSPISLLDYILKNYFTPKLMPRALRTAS
Consider `O=C(c1ccc(-c2cccc(NS(=O)(=O)c3ccccc3OC(F)(F)F)c2)s1)c1c(F)ccc(O)c1F`, for which the pIC50 is 7.42.

In turn, `O=C(c1ccc(-c2cccc(NS(=O)(=O)c3ccccc3C(F)(F)F)c2)s1)c1c(F)ccc(O)c1F` had a pIC50 of 7.31.

For the origin of these results see ChEMBL document CHEMBL3627664, “Towards the evaluation in an animal disease model: Fluorinated 17β-HSD1 inhibitors showing strong activity towards both the human and the rat enzyme” (Eur J Med Chem, 2015).
